The results in this text go back to the GPR68 mutational scans of Howard et al. (2025).

The least precise scores are not listed. The source holds two more conditions with little spread; they are left out. Read del as a deletion of the residues named and ins as an insertion between two positions. For some of these results: The concentration of ogerin is not given here.

The labels stand for the following.
B1: GPR68, Q15743 (parent)
chain: MGNITADNSSMSCTIDHTIHQTLAPVVYVTVLVVGFPANCLSLYFGYLQIKARNELGVYLCNLTVADLFYICSLPFWLQYVLQHDNWSHGDLSCQVCGILLYENIYISVGFLCCISVDRYLAVAHPFRFHQFRTLKAAVGVSVVIWAKELLTSIYFLMHEEVIEDENQHRVCFEHYPIQAWQRAINYYRFLVGFLFPICLLLASYQGILRAVRRSHGTQKSRKDQIQRLVLSTVVIFLACFLPYHVLLLVRSVWEASCDFAKGVFNAYHFSLLLTSFNCVADPVLYCFVSETTHRDLARLRGACLAFLTCSRTGRAREAYPLGAPEASGKSGAQGEEPELLTKLHPAFQTPNSPGSGGFPTGRLA

Variants of B1 are the subject of data set [1]. The data set can be described thus: cAMP reporter score (Enrich2 score, wild type = 0); higher = more signal; HEK293T, FACS bins.
Variants of B1 are the subject of data set [2]. The data set can be described thus: surface expression score (Enrich2 score, wild type = 0); higher = more signal; HEK293T, FACS bins.

Turning to D85_N86insGS, the cAMP reporter score was -1.82 in data set [1] (pH 5.5); -0.725 in data set [1] (pH 6); -2.13 in data set [1] (pH 6, modulator: ogerin); -1.78 in data set [1] (pH 6.5, modulator: ogerin). Besides, the surface expression score in data set [2] is -0.484.

For the variant S88_H89insG, the cAMP reporter score is -1.03 in data set [1] (pH 5.5); -0.09 in data set [1] (pH 6); -0.768 in data set [1] (pH 6.5, modulator: ogerin). Moreover, the surface expression score in data set [2] is -0.128.

Turning to D91E, the cAMP reporter score in data set [1] (pH 5.5) was 0.274; in data set [1] (pH 6), 1.06; in data set [1] (pH 6, modulator: ogerin), 0.369; in data set [1] (pH 6.5, modulator: ogerin), 0.084. Further, the surface expression score in data set [2] is -0.255.

In the case of D91T, the cAMP reporter score in data set [1] (pH 5.5) was 1.34; in data set [1] (pH 6), 0.498; in data set [1] (pH 6, modulator: ogerin), 0.663; in data set [1] (pH 6.5, modulator: ogerin), -0.47. Also, the surface expression score in data set [2] was 1.77.

On to D91F, for which the cAMP reporter score was 0.789 in data set [1] (pH 5.5); -0.391 in data set [1] (pH 6); 0.997 in data set [1] (pH 6, modulator: ogerin); 0.034 in data set [1] (pH 6.5, modulator: ogerin). Moreover, in data set [2], the surface expression score is -0.061.

With D91R, the cAMP reporter score was found to be 0.501 in data set [1] (pH 5.5); 0.829 in data set [1] (pH 6); 0.16 in data set [1] (pH 6, modulator: ogerin); 1.15 in data set [1] (pH 6.5, modulator: ogerin). For the same variant, the surface expression score in data set [2] amounted to 1.15.

On to D91V, for which the cAMP reporter score in data set [1] (pH 5.5) is 0.491; in data set [1] (pH 6), 0.223; in data set [1] (pH 6, modulator: ogerin), -0.174; in data set [1] (pH 6.5, modulator: ogerin), 0.298. Also, the surface expression score in data set [2] was -0.168.

For D91A, the cAMP reporter score is 0.105 in data set [1] (pH 5.5); -0.154 in data set [1] (pH 6); 0.326 in data set [1] (pH 6, modulator: ogerin); -0.615 in data set [1] (pH 6.5, modulator: ogerin). In addition, the surface expression score in data set [2] was 0.439.

In the case of D91P, the cAMP reporter score is -0.534 in data set [1] (pH 5.5); -0.601 in data set [1] (pH 6); -0.363 in data set [1] (pH 6, modulator: ogerin); 0.724 in data set [1] (pH 6.5, modulator: ogerin). The surface expression score in data set [2] is -1.55.

As for D91K, the cAMP reporter score in data set [1] (pH 5.5) amounted to 0.922; in data set [1] (pH 6) it was 1.99; in data set [1] (pH 6, modulator: ogerin), 1.2; in data set [1] (pH 6.5, modulator: ogerin), 2.54. Also, the surface expression score in data set [2] was 0.817.

Turning to D91M, the cAMP reporter score in data set [1] (pH 5.5) was 0.121; in data set [1] (pH 6) it was -1.31; in data set [1] (pH 6, modulator: ogerin) it was 0.246; in data set [1] (pH 6.5, modulator: ogerin), 0.08. The surface expression score in data set [2] is -0.659.

Consider D91I, for which the cAMP reporter score in data set [1] (pH 5.5) is 1.43; in data set [1] (pH 6), 4.5; in data set [1] (pH 6, modulator: ogerin) it was 1.77; in data set [1] (pH 6.5, modulator: ogerin) it was 2.38. In data set [2], the surface expression score is -0.599.

For D91C, the cAMP reporter score in data set [1] (pH 5.5) is -0.376; in data set [1] (pH 6, modulator: ogerin) it was -0.862; in data set [1] (pH 6.5, modulator: ogerin) it was 0.27. Further, in data set [2], the surface expression score is -0.189.

Turning to D91Y, the cAMP reporter score was 0.097 in data set [1] (pH 5.5); -0.673 in data set [1] (pH 6); 0.157 in data set [1] (pH 6, modulator: ogerin); -0.337 in data set [1] (pH 6.5, modulator: ogerin). The surface expression score in data set [2] was -0.311.

For D91H, the cAMP reporter score in data set [1] (pH 5.5) is -0.05; in data set [1] (pH 6), 1.22; in data set [1] (pH 6, modulator: ogerin), -0.456; in data set [1] (pH 6.5, modulator: ogerin), -0.67.

As to D91G, the cAMP reporter score in data set [1] (pH 5.5) was 0.915; in data set [1] (pH 6), 1.76; in data set [1] (pH 6, modulator: ogerin), 1.43; in data set [1] (pH 6.5, modulator: ogerin), 2.8. Also, the surface expression score in data set [2] is 0.623.

For D91Q, the cAMP reporter score in data set [1] (pH 5.5) came out at 0.296; in data set [1] (pH 6), 1.33; in data set [1] (pH 6, modulator: ogerin), 0.655; in data set [1] (pH 6.5, modulator: ogerin), 0.381. For the same variant, in data set [2], the surface expression score was -0.024.

On to D91N, for which the cAMP reporter score in data set [1] (pH 5.5) is -0.158; in data set [1] (pH 6), 0.512; in data set [1] (pH 6, modulator: ogerin), -0.439; in data set [1] (pH 6.5, modulator: ogerin), 0.587. The surface expression score in data set [2] stood at 0.088.

As to D91W, the cAMP reporter score is 0.518 in data set [1] (pH 5.5); 0.614 in data set [1] (pH 6, modulator: ogerin); 2.2 in data set [1] (pH 6.5, modulator: ogerin). Besides, the surface expression score in data set [2] was 0.838.

Turning to D91L, the cAMP reporter score in data set [1] (pH 5.5) was -0.374; in data set [1] (pH 6), 2.69; in data set [1] (pH 6, modulator: ogerin), 0.904.

On to D91S, for which the cAMP reporter score stood at 0.848 in data set [1] (pH 5.5); 0.032 in data set [1] (pH 6); 0.383 in data set [1] (pH 6, modulator: ogerin); 0.186 in data set [1] (pH 6.5, modulator: ogerin). Besides, in data set [2], the surface expression score turned out to be 1.96.

With N86_S88del, the cAMP reporter score is -1.88 in data set [1] (pH 5.5); -1.12 in data set [1] (pH 6); -1.56 in data set [1] (pH 6, modulator: ogerin); -1.07 in data set [1] (pH 6.5, modulator: ogerin). For the same variant, the surface expression score in data set [2] was -1.49.

Take Y80L: the cAMP reporter score is -1.74 in data set [1] (pH 5.5); -1.06 in data set [1] (pH 6); -0.32 in data set [1] (pH 6, modulator: ogerin); -0.376 in data set [1] (pH 6.5, modulator: ogerin). In data set [2], the surface expression score was -0.904.

For Y80R, the cAMP reporter score was -0.871 in data set [1] (pH 5.5); 0.014 in data set [1] (pH 6); -1.26 in data set [1] (pH 6, modulator: ogerin); -0.868 in data set [1] (pH 6.5, modulator: ogerin). Besides, in data set [2], the surface expression score was 1.1.

Regarding Y80V, the cAMP reporter score in data set [1] (pH 5.5) is -1.8; in data set [1] (pH 6) it was -0.366; in data set [1] (pH 6, modulator: ogerin), -1.7; in data set [1] (pH 6.5, modulator: ogerin), -0.617. Further, in data set [2], the surface expression score was -1.24.

In the case of Y80A, the cAMP reporter score was -0.865 in data set [1] (pH 5.5); -0.765 in data set [1] (pH 6); -1.15 in data set [1] (pH 6.5, modulator: ogerin). Further, in data set [2], the surface expression score came to 0.788.

With Y80N, the cAMP reporter score in data set [1] (pH 5.5) was -1.47; in data set [1] (pH 6) it was -0.382; in data set [1] (pH 6, modulator: ogerin), -0.97; in data set [1] (pH 6.5, modulator: ogerin), -0.695. The surface expression score in data set [2] worked out at 2.58.

Regarding Y80T, the cAMP reporter score is -1.25 in data set [1] (pH 5.5); -0.435 in data set [1] (pH 6); -1.02 in data set [1] (pH 6, modulator: ogerin); -0.653 in data set [1] (pH 6.5, modulator: ogerin). In addition, in data set [2], the surface expression score is 0.407.

Consider Y80W, for which the cAMP reporter score is -1.52 in data set [1] (pH 5.5); -1.05 in data set [1] (pH 6); -2.57 in data set [1] (pH 6, modulator: ogerin); -1.56 in data set [1] (pH 6.5, modulator: ogerin). In addition, in data set [2], the surface expression score was -0.434.

As for Y80F, the cAMP reporter score was -0.53 in data set [1] (pH 5.5); 0.634 in data set [1] (pH 6); -0.912 in data set [1] (pH 6, modulator: ogerin); -0.432 in data set [1] (pH 6.5, modulator: ogerin). The surface expression score in data set [2] is -0.954.

Take Y80K: the cAMP reporter score is -1.32 in data set [1] (pH 5.5); -1.23 in data set [1] (pH 6); -1.68 in data set [1] (pH 6, modulator: ogerin); -1.17 in data set [1] (pH 6.5, modulator: ogerin). Also, the surface expression score in data set [2] came out at 0.752.
